Laboratory results published in PubChem BioAssay (NCATS).
The inconclusive results got no clear call from the source; some entries with a clear call stand among them for comparison. For some assays here: A potency beside an inconclusive call is a rough fit, not a confirmed value. For some assays here: A note “side channel” means that the fit belongs to a control or component signal, not to the main read-out. The source made the active and inactive calls. Unless noted, calls follow the shape of the dose curve; as a rule, active = well fitted curve in the direction sought with a large enough effect; inconclusive = small, poorly fitted or top-dose-only effect, or another doubt; inactive = no such curve, though single readings can be large; an effect the other way counts as inactive or inconclusive.

Legend:
[1] = Cell Viability - Hek293 (AID 427;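 active = compounds whose dose-response curve shows a full or clear partial loss of cell viability, called from curve shape rather than a numeric limit; inconclusive = weak partial curves or an effect only at the top dose; inactive = no dose-dependent loss of viability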;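 also: potency is read from the fitted curve at half-maximal effect; cells exposed to compound for 40 hours at 37 °C before reading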); details: qHTS
How it was run: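 Luminescent ATP read-out (CellTiter-Glo, 20 min RT) after 40 hr compound exposure at 37 °C in complete medium. Signal normalized to DMSO (basal) and 100 uM tamoxifen (100% inhibition); concentration-response fitted with the standard Hill equation to give AC50.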

[2] = Cell Viability - SK-N-SH (AID 435; calls by dose curve;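 also: potency is read from the fitted curve at half-maximal effect; compound exposure lasted 40 h at 37 °C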); details: SK-N-SH neuroblastoma cell viability qHTS
How it was run: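 Luminescent ATP signal served as the viability read-out after 40 hours of compound treatment of human neuroblastoma SK-N-SH cells. Concentration-response data, scaled between DMSO and 100 uM tamoxifen, gave AC50 values by standard Hill modeling.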

[3] = Cell Viability - NIH 3T3 (AID 541); details: NIH 3T3 cell viability, qHTS; activity change, negative = cytotoxicity: at 92.2 µM (top of the series);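 also: plate controls were DMSO alone for no effect and tamoxifen positive control for full effect; nearly all actives have a fitted effect of over 25% in size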
How it was run: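 Mouse NIH 3T3 fibroblasts, 1000 cells/well, rested 5 hr at 37 °C, then exposed to compound for 40 hr at 37 °C in complete medium. Viability read as intracellular ATP by CellTiter-Glo luminescence; AC50 from Hill-equation fits of concentration-response data.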

[4] = Cell Viability - HUV-EC-C (AID 542); details: HUV-EC-C endothelial cell viability, qHTS; series mostly up to 92.2 µM; also: potency is read from the fitted curve at half-maximal effect; nearly all actives have a fitted effect of over 35% in size
How it was run: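 HUV-EC-C human vascular endothelial cells, 1000/well, exposed to compound for 40 hr at 37 °C in complete medium. Intracellular ATP was read by CellTiter-Glo luminescence. AC50 came from Hill-equation fits of concentration-response data.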

[5] = Cell Viability - Renal Proximal Tubule (AID 545); details: renal proximal tubule cells viability, primary cells of rat origin; activity change, negative = cytotoxicity: at 91.7 µM (top of the series); also: nearly all actives have a fitted effect of over 40% in size
How it was run: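 Luminescent ATP signal (CellTiter-Glo) served as the viability read-out after 40 hr compound exposure of freshly isolated rat proximal tubule cells at 37 °C. Concentration-dependent ATP loss was fitted with the Hill equation to give AC50.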

[6] = Cell Viability - Mesenchymal (AID 546); details: mesenchymal cells viability, qHTS; activity change, negative = cytotoxicity: at 91.7 µM (top of the series);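 also: cells exposed to compound for 40 hours before reading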
How it was run: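 Human kidney mesenchymal cells from normal renal glomeruli, 1000 cells/well, rested 5 hr at 37 °C, then treated 40 hr at 37 °C in complete medium. Cellular ATP read by CellTiter-Glo luminescence; AC50 from Hill-equation fits.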

[7] = Cellular Toxicity (caspase-3) Jurkat (AID 655); details: Jurkat caspase-3 activation, luminescence; caspase-3 activation: at 92.2 µM (top of the series), DMSO = 0%, tamoxifen = 100%;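 also: cells exposed to compound for 16 h at 37 °C before reading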
How it was run: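 5000 Jurkat cells/well; compound 16 hr, 37 °C; Caspase-Glo 3/7 added, 20 min RT; luminescence read. Norm: DMSO = 0%, tamoxifen 100 uM = 100%. AC50, Hill model.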

[8] = Cellular Toxicity (caspase-3) H-4-II-E (AID 663); details: H-4-II-E rat hepatoma; Potency: caspase-3 activation; caspase-3 activation: at 92.2 µM (top of the series), scaled: DMSO 0%, 100 µM tamoxifen 100%;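 also: cells exposed to compound for 16 hr before readout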
How it was run: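 Rat hepatoma H-4-II-E cells (1500/well) plated 5 hr, then exposed to compound titrations for 16 hr at 37 °C. Caspase-Glo 3/7 luminescence read after 20 min at RT; data normalized to DMSO and 100 uM tamoxifen, AC50 from Hill fits.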

[9] = Cellular Toxicity (caspase-3) Hek293 (AID 664); details: HEK293 caspase-3 activation, DMSO = 0%, 100 µM tamoxifen = 100%; at 92.2 µM (top of the series);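 also: cells exposed to compound for 16 h at 37 °C before readout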
How it was run: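 HEK293 cells in complete medium treated 16 h at 37 °C, then Caspase-Glo 3/7 luminescence read after 20 min at room temperature. Normalized to DMSO and 100 uM tamoxifen; AC50 from Hill fit of concentration-response.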

[10] = MultiTox-Fluor Cytotoxicity Assay - LYMP1-002 - Dead Cells (AID 960); details: LYMP1-002 lymphoblastoid cells, dead-cell protease fluorescence; cytotoxicity (dead cells): at 46.1 µM (top of the series); also: potency is read from the fitted curve at half-maximal effect; nearly all actives have a fitted effect of over 60% in size
How it was run: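 Human lymphoblastoid LYMP1-002 cells, 2500/well, treated 16 h at 37 C; dead-cell protease cleavage of bis-AAF-R110 read by fluorescence (485/520); normalized to DMSO and 15 uM tetraoctylammonium bromide; AC50 from Hill fit.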

[11] = Cell Viability - LYMP2-019 (AID 973); details: LYMP2-019 lymphoblastoid cell line viability; series mostly up to 92.2 µM;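 also: potency is read from the fitted curve at half-maximal effect; cells exposed to compound for 24 h at 37 °C; nearly all actives have a fitted effect of over 55% in size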
How it was run: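 Human lymphoblastoid LYMP2-019 cells (2500/well) preincubated 5 h at 37 C, then treated 24 h at 37 C in complete medium. Viability by CellTiter-Glo ATP luminescence after 30 min at room temperature; AC50 from Hill fits.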

[12] = target: Estrogen receptor (Homo sapiens) (UniProt P03372); assay: qHTS assay for small molecule antagonists of estrogen receptor alpha signaling (AID 588513; active = well fitted curve in the direction sought with a large enough effect in the signal ratio, with a control signal flat, not every such curve was filed as active; inconclusive = small, poorly fitted or top-dose-only effect, or effect the other way, or a change in a side signal; inactive = no such curve, though single readings can be large or run the other way; the % refers to the signal ratio; also: potency is read from the fitted curve at half-maximal effect); details: ER-alpha-UAS-bla HEK293, beta-lactamase ratio, antagonist mode; activity, negative = inhibition: at 76.9 µM (top of the series) unless noted
How it was run: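 Fluorescence from CCF4 substrate after 2 h at room temperature gave reporter activity; cells had been exposed to compound and 0.5nM 17-beta-estradiol for 18 h at 37 C. Hill-equation fitting yielded IC50 and maximal response.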

[13] = target: Bile acid receptor (Homo sapiens) (UniProt Q96RI1); assay: qHTS assay for small molecule agonists of farnesoid X receptor signaling (AID 588527; calls by dose curve;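 also: 0% = vehicle basal and 100% = reference agonist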); details: HEK293T FXR-UAS-bla, beta-lactamase ratio, 16 h; activation: hits give high values
How it was run: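 FXR-UAS-bla HEK293T, 10% dialyzed FBS; cpds up to 92 uM titration, 16 h 37 C; CCF4 dye 2 h RT; fluorescence. Normalized to chenodeoxycholic acid 100 uM (100%) and DMSO (0%); Hill fit gives EC50, efficacy.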

[14] = target: Peroxisome proliferator-activated receptor gamma (Homo sapiens) (UniProt P37231); assay: qHTS assay for small molecule agonists of peroxisome proliferator-activated receptor gamma signaling (AID 588536; active = well fitted curve in the direction sought with a large enough effect in the signal ratio, with a control signal flat, not every such curve was filed as active; inconclusive = small, poorly fitted or top-dose-only effect, or effect the other way, or a change in a side signal; inactive = no such curve, though single readings can be large or run the other way; the % refers to the signal ratio;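 also: 0% = DMSO basal wells and 100% = rosiglitazone at 2 µM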); details: HEK293 PPARg-UAS-bla, beta-lactamase ratio, 16 h; activation: at 76.7 µM (top of the series), percent of rosiglitazone response, DMSO as zero
How it was run: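 PPAR-gamma-UAS-bla HEK293 cells in medium with 1% charcoal/dextran-treated FBS were exposed to compounds for 16 h at 37 C. Beta-lactamase activity was read with CCF4 substrate (405 nm excitation, 460/530 nm emission).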

[15] = target: Peroxisome proliferator-activated receptor gamma (Homo sapiens) (UniProt P37231); assay: qHTS assay for small molecule antagonists of peroxisome proliferator-activated receptor gamma signaling (AID 588537; active = well fitted inhibition curve with a large enough effect in the signal ratio, with a control signal flat, not every such curve was filed as active; inconclusive = small, poorly fitted or top-dose-only effect, or effect the other way, or a change in a side signal; the % refers to the signal ratio;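 also: reporter cells co-stimulated with 50 nM rosiglitazone agonist during compound treatment; potency is read from the fitted curve at half-maximal effect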); details: HEK293 PPARg-UAS-bla, beta-lactamase ratio, antagonist mode; activity, negative = inhibition: at 76.8 µM (top of the series)
How it was run: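 PPARγ-UAS-bla HEK293 cells (3000/well) in 1% charcoal/dextran-stripped FBS are treated with compound, then stimulated with 50 nM rosiglitazone for 16 h at 37 °C. Read-out is CCF4 β-lactamase fluorescence after 2 h at RT. IC50 comes from Hill fits normalised to rosiglitazone and DMSO.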

[16] = target: Vitamin D3 receptor (Homo sapiens) (UniProt P11473); assay: qHTS assay for small molecule antagonists of vitamin D receptor signaling (AID 588541; calls by dose curve; also: potency is read from the fitted curve at half-maximal effect); details: HEK293T VDR-UAS-bla, beta-lactamase ratio, antagonist mode; activity change, negative = inhibition: at 76.7 µM (top of the series)
[17] = target: Thyroid hormone receptor beta (Homo sapiens) (UniProt P10828); assay: qHTS assay for small molecule agonists of thyroid hormone receptor beta signaling (AID 588545; calls by dose curve; also: potency is read from the fitted curve at half-maximal effect); details: TR-UAS-bla GripTite HEK 293, beta-lactamase ratio, agonist mode, 18 h; activation: at 76.7 µM, percent of T3 response, DMSO as zero
How it was run: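 Efficacy and EC50 values derive from Hill fits of qHTS titration data, normalized to 10 nM T3 and DMSO-only wells. HEK 293 reporter cells were stimulated for 18 hrs at 37 C, with beta-lactamase activity measured by CCF4 fluorescence.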

[18] = target: Retinoic acid receptor RXR-alpha (Homo sapiens) (UniProt P19793); assay: qHTS assay for small molecule antagonists of retinoid X receptor alpha signaling (AID 588546; active = well fitted inhibition curve with a large enough effect in the signal ratio, with a control signal flat, not every such curve was filed as active; inconclusive = small, poorly fitted or top-dose-only effect, or effect the other way, or a change in a side signal; inactive = no such curve, though single readings can be large or run the other way; the % refers to the signal ratio; also: potency is read from the fitted curve at half-maximal effect); details: HEK293T RXRa-UAS-bla, beta-lactamase ratio, antagonist mode
How it was run: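 Beta-lactamase reporter inhibition, read as CCF4 fluorescence ratio (ex 405, em 460/530 nm) after 2 h at RT. HEK293T UAS-bla cells, 2500/well, were stimulated with 9-cis-RA at 500 or 100 nM final alongside test compound for 18 h at 37 C.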

[19] = target: Thyroid hormone receptor beta (Homo sapiens) (UniProt P10828); assay: qHTS assay for small molecule antagonists of thyroid hormone receptor beta signaling (AID 588547; active = well fitted inhibition curve with a large enough effect in the signal ratio, with a control signal flat, not every such curve was filed as active; inconclusive = small, poorly fitted or top-dose-only effect, or effect the other way, or a change in a side signal; the % refers to the signal ratio; also: potency is read from the fitted curve at half-maximal effect); details: TR-UAS-bla HEK293, beta-lactamase ratio, antagonist mode, 18 h
How it was run: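 TR-UAS-bla GripTite HEK293 cells in 2% charcoal/dextran FBS medium; compounds 0.59 nM to 92 uM with T3 at 0.4nM final, 18 h at 37 C. Beta-lactamase read by CCF4 fluorescence (460/530 nm); Hill fits gave IC50 and efficacy.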

[20] = qHTS assay for small molecule agonists of the antioxidant response element (ARE) signaling pathway (AID 651741; active = well fitted activation curve with a large enough effect in the signal ratio; inconclusive = small, poorly fitted or top-dose-only effect, or effect the other way, or a change in a side signal; the % refers to the signal ratio; also: potency is read from the fitted curve at half-maximal effect); details: HepG2 ARE-bla reporter, beta-lactamase FRET ratio, 16 h; activation: at 96 µM (top of the series) unless noted
How it was run: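 CellSensor ARE-bla HepG2 cells (2,000/well) carrying ARE-driven beta-lactamase, exposed 16 h at 37 C. LiveBLAzer B/G FRET substrate added for 2 h at room temperature; fluorescence intensity read.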

[21] = qHTS assay to identify small molecules that stimulate interleukin-8 (IL-8) secretion (AID 651758; active = well fitted activation curve with a large enough effect in the signal ratio; inconclusive = small, poorly fitted or top-dose-only effect, or effect the other way, or a change in a side signal; the % refers to the signal ratio; also: 0% is about no effect); details: HTRF ratio (665/615); activation: at 92.2 µM (top of the series)
How it was run: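 THP-1 cells (2000/well) exposed to compound 16 h at 37 C; secreted IL-8 then detected by HTRF with cryptate- and XL665-labelled anti-IL-8 antibody pair after 1-3 h at room temperature.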

[22] = target: Nuclear receptor ROR-gamma (Homo sapiens) (UniProt P51449); assay: qHTS assay for small molecule antagonists of the retinoid-related orphan receptor gamma (ROR-gamma) signaling pathway (AID 651802); details: ROR-gamma antagonist cell reporter assay; series mostly up to 92.2 µM; also: potency is read from the fitted curve at half-maximal effect; nearly all actives have a fitted effect of over 60% in size
How it was run: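 CHO cells with TET-inducible ROR-gamma and RORE-luciferase reporter, dosed then doxycycline-induced. After 16 h at 37C, One-Glo luminescence read; decreased signal indicates antagonism.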

[23] = qHTS assay for small molecule agonists of the antioxidant response element (ARE) signaling pathway measured by Nrf2-dependant transcriptional activity (AID 720636; active = well fitted curve in the direction sought with a large enough effect in the repeat runs; inconclusive = weak or mixed curves; inactive = no such curve, though single readings can be large; an effect the other way counts as inactive or inconclusive;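 also: HepG2 cells with an ARE-driven luciferase reporter; % of control where 0% means no effect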); details: ARE-luc HepG2, Nrf2 luciferase reporter, 16 h; series mostly up to 92.4 µM
How it was run: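 ONE-Glo luminescence, read 30 min after reagent addition at room temperature, reflected ARE reporter activity in HepG2 cells that had been incubated with compound for 16 hr at 37 C in 1% dialyzed FBS.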
Tags tell the direction and shape of the fitted curve or compound fluorescence and quenching.

Sequence of UniProt P10828 (P10828 whole entry, looked up): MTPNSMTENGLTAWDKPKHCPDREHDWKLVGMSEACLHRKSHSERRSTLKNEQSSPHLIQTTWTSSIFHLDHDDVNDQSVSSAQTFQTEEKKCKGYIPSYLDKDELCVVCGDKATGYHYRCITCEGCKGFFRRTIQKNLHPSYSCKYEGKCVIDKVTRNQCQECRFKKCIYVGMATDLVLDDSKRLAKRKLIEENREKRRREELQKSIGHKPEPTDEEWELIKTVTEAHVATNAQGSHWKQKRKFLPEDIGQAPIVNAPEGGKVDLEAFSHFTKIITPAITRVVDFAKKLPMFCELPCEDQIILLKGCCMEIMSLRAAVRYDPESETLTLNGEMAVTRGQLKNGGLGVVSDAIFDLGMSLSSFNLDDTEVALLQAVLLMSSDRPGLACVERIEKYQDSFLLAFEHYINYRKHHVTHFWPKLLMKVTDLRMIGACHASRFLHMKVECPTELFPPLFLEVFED
Sequence of UniProt P03372 (P03372 whole entry, looked up): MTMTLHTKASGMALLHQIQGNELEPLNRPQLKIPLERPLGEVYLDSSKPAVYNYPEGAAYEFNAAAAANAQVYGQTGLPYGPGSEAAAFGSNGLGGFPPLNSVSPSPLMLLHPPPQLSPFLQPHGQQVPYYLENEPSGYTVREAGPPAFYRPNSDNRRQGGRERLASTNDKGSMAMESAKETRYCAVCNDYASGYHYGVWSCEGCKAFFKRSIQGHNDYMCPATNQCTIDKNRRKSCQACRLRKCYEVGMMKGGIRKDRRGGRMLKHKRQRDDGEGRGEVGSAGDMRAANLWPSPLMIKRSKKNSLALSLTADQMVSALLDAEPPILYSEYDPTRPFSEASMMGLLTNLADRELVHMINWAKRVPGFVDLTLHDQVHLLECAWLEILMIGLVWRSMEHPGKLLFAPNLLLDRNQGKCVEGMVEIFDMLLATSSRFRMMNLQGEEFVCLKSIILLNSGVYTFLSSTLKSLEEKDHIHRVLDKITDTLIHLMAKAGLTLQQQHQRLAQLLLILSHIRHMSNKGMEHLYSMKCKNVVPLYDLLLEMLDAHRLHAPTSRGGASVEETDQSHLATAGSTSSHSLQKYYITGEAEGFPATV
Sequence of UniProt P19793 (P19793 whole entry, looked up): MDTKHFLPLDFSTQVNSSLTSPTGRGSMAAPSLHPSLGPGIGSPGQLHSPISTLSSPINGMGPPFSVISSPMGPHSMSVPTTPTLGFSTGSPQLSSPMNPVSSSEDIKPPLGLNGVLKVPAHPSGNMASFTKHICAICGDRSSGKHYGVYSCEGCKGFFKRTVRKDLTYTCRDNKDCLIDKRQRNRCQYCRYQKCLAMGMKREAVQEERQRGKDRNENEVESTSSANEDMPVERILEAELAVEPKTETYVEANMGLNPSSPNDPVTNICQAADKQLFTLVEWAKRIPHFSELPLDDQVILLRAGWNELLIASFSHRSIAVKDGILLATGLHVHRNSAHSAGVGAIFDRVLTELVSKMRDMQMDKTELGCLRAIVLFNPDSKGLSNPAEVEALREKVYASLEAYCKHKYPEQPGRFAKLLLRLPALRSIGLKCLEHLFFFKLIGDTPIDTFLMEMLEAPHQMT
Sequence of UniProt Q96RI1 (Q96RI1 whole entry, looked up): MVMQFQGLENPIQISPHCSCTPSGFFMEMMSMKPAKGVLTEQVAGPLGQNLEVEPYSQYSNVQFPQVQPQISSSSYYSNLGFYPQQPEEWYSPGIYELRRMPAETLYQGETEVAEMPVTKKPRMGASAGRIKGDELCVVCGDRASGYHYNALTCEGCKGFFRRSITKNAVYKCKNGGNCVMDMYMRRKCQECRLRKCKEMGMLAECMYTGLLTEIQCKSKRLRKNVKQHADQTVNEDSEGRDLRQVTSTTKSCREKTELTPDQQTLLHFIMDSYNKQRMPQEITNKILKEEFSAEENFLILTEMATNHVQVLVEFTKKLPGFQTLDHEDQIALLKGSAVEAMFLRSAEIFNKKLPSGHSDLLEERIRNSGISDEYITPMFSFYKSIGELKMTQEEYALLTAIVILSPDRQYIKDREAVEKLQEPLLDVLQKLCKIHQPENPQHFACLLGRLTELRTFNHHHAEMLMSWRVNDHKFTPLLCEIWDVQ
Sequence of UniProt P51449 (P51449 whole entry, looked up): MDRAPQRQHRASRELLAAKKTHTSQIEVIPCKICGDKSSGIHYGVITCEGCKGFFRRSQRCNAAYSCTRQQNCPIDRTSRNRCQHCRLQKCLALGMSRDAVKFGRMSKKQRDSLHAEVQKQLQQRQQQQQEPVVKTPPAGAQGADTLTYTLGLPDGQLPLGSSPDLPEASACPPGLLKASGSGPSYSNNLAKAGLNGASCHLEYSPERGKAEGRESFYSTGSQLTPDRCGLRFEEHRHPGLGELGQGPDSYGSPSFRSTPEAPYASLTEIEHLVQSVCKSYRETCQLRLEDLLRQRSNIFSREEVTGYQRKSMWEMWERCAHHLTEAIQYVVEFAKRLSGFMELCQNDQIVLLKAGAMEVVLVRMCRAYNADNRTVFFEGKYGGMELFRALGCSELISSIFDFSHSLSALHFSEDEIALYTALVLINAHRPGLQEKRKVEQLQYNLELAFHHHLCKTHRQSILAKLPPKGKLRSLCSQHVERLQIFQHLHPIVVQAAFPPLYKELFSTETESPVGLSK

CCCCCCCC/C=C\CCCCCCCC(=O)N(CCO)CCO
inconclusive: Potency [1] 98.9 µM [single point] | Potency [2] 56.1 µM [single point] | activity change, negative = cytotoxicity [3] -45.6% | activity change, negative = cytotoxicity [5] -33.3% | activity change, negative = cytotoxicity [6] -101% | caspase-3 activation [8] 74.5% | caspase-3 activation [9] 33.8% | Potency [11] 39.8 µM [cytotoxic, single point] | Potency [12] 50.1 µM [falling, partial curve, poor fit] | activation [14] -14.1% | Potency [15] 44.7 µM [falling, partial curve] | Potency [16] 35.5 µM [side channel, rising, single point] | Potency [17] 0.0035 µM [side channel, falling, full curve, poor fit] | Potency [18] 28.2 µM [side channel, rising, partial curve, poor fit] | Potency [19] 50.1 µM [inhibitor, single point] | Potency [20] 42.2 µM [activator, partial curve] | activation [21] -6.67% | Potency [22] 42.2 µM [inhibitor, partial curve, poor fit]
inactive: activation [13] 0.527% | Potency [23]
active: Potency [4] 39.8 µM | caspase-3 activation [7] 96.6% | Potency [10] 31.6 µM
